In all, about 110,000 compounds were measured (“z-score”: median about -0.1, highest 2% from about 2 on). This is one part of the list. The source made the active and inactive calls.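 How the source made its calls: active means z-score in the third read window above 3 or below -3; inactive means the rest.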
biological target: Metabotropic glutamate receptor 8 (Rattus norvegicus) (UniProt P70579); test: rat mGluR8 modulators via GIRK flux, primary screen, cell-based, thallium flux, HTS (AID 488969); settings: HEK293 rat mGluR8, GIRK (G protein-gated inwardly rectifying potassium channel) thallium flux, FluoZin2; at 10 µM; stronger effect = higher value; submaximal glutamate (EC20) added with thallium
Chain of UniProt P70579 (P70579 whole entry, looked up): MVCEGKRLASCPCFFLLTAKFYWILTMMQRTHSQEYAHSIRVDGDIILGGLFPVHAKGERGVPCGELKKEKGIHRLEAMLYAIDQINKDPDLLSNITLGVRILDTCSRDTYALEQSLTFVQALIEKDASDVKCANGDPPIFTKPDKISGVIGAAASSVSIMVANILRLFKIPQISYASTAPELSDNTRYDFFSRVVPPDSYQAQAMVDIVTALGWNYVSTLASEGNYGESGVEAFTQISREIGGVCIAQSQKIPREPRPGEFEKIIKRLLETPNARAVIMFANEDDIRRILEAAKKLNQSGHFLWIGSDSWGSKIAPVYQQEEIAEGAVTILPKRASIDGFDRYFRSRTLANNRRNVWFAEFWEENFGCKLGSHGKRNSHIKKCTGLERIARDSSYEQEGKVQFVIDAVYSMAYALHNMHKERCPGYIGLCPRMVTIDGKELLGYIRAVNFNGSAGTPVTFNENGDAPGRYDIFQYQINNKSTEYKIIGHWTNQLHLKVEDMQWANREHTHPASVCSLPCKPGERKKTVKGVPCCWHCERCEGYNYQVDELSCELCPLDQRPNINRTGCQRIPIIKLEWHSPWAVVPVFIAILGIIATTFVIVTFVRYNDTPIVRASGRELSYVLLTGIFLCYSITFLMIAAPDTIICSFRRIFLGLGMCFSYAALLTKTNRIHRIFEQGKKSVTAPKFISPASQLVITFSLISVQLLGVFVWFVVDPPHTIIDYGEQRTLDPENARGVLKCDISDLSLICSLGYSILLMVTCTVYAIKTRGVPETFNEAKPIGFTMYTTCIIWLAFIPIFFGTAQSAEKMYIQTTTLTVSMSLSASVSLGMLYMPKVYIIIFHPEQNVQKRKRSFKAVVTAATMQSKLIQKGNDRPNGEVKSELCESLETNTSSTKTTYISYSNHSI

Structure (SMILES)	z-score
CCOC(=O)c1cc2c(=O)n3ccccc3nc2n(CCCOC)c1=NC(C)=O	-0.197
COc1cc(SC)ccc1C(=O)NCCOc1c(C)cc(C)cc1C	-0.191
CCCSc1nc(=O)n2cccc(C)c2n1	-0.6
Cc1cccc(C)c1N=C1NN=C(c2ccccc2F)CS1	0.0768
CCc1ccc(-c2csc(-c3c[nH]c4ccccc34)n2)cc1	0.735
CCc1ccccc1NC(=O)C(C)n1nc([N+](=O)[O-])c(Br)c1C (stereo unspecified)	-0.169
O=C(NCc1ccc2c(c1)OCO2)c1ccc(Cl)c(S(=O)(=O)N2CCOCC2)c1	-0.275
COc1ccc(C(=O)Cn2c(NCCO)nc3ccccc32)cc1OC	0.0145
CCCn1c2ccccc2c2nnc(SCC(=O)Nc3cc(C)on3)nc21	0.531
CCc1ccccc1NC(=O)CN(C)C(=O)CSc1nn(-c2ccccc2)c(=S)s1	-0.632
CCC(Sc1nc(=O)cc(N)n1-c1cccc(C)c1)C(=O)Nc1cc(C)on1 (stereo unspecified)	-0.411
O=S(=O)(NCCSCc1ccc(Cl)cc1Cl)c1ccc2c(c1)OCCO2	-0.123
O=C1CC(SC(=Nc2ccccc2)Nc2ccccc2)C(=O)N1c1ccc(Cl)cc1 (stereo unspecified)	-0.0248
COc1ccccc1Nc1ncnc2ccc(C)cc12	1.32
Oc1ccc(/C=N/Nc2cc(N3CCCC3)nc(N3CCCC3)n2)cc1	0.0321
COc1ccccc1OCCCCOc1ccccc1F	-0.202

Structure (SMILES)	z-score
Cc1occc1C(=O)NNC(=S)NCC(C)C	0.239
O=C(Nc1ccccc1-c1nc2ccccc2s1)c1cccnc1Cl	-0.00366
O=C(N/N=C/c1ccc2c(c1)OCO2)C1COc2ccccc2O1 (stereo unspecified)	0.435
CC(=O)NC1(C(F)(F)F)C(=O)N(Cc2ccccc2)C2=C1C(=O)CC(C)(C)C2 (stereo unspecified)	-0.139
CSc1nc(-c2ccc(Cl)cc2)nn1S(=O)(=O)c1ccccc1	0.244
O=C(CSc1ncc(C(F)(F)F)cc1Cl)N1CCN(S(=O)(=O)c2ccc(Cl)cc2)CC1	0.124
Cc1ccc2c(c1)C=CC(C#N)N2C(=O)c1ccccc1 (stereo unspecified)	-0.641
COc1ccccc1CNC(=O)c1cccc(N(C)C)c1	0.0341
Cc1cccc(C(=O)Nc2ccccc2C(=O)OCC(=O)Nc2ccc(C#N)cc2)c1	2.11
COC(=O)c1cc(OC)c(OC)cc1NCC(=O)Nc1ccc(OC)c(OC)c1	-0.419
Cc1nnc(SCC(=O)Nc2ncc(Cc3ccc(F)cc3)s2)n1N	1.83
COc1ccc(-c2cn3ccccc3n2)cc1[N+](=O)[O-]	0.823
Cc1ccnc2nc(C(=O)OCCOc3cccc(Br)c3)nn12	-0.379
Nc1nnc(C(=O)c2ccccc2N)s1	active: 4.29
Cc1cccc(-c2nnn3c2nc(NCCc2ccc(S(N)(=O)=O)cc2)c2ccccc23)c1	-0.272

Source: PubChem BioAssay AID488969 (Vanderbilt High Throughput Screening Facility, 2010)
